# Source: publication PMC4336329 (PLoS ONE, 2015)
# Out of some 310,000 compounds screened, about 2,200 (0.71%) showed an effect of 50% or more. Effects have a minus sign here. This is one part of the list.
# Biological target: human ether-à-go-go-related gene (hERG) potassium channel (human, UniProt Q12809)
# Assay: primary screen, population patch clamp on CHO cells stably expressing hERG
# Sequence of human ether-à-go-go-related gene (hERG) potassium channel (Q12809 whole entry, looked up): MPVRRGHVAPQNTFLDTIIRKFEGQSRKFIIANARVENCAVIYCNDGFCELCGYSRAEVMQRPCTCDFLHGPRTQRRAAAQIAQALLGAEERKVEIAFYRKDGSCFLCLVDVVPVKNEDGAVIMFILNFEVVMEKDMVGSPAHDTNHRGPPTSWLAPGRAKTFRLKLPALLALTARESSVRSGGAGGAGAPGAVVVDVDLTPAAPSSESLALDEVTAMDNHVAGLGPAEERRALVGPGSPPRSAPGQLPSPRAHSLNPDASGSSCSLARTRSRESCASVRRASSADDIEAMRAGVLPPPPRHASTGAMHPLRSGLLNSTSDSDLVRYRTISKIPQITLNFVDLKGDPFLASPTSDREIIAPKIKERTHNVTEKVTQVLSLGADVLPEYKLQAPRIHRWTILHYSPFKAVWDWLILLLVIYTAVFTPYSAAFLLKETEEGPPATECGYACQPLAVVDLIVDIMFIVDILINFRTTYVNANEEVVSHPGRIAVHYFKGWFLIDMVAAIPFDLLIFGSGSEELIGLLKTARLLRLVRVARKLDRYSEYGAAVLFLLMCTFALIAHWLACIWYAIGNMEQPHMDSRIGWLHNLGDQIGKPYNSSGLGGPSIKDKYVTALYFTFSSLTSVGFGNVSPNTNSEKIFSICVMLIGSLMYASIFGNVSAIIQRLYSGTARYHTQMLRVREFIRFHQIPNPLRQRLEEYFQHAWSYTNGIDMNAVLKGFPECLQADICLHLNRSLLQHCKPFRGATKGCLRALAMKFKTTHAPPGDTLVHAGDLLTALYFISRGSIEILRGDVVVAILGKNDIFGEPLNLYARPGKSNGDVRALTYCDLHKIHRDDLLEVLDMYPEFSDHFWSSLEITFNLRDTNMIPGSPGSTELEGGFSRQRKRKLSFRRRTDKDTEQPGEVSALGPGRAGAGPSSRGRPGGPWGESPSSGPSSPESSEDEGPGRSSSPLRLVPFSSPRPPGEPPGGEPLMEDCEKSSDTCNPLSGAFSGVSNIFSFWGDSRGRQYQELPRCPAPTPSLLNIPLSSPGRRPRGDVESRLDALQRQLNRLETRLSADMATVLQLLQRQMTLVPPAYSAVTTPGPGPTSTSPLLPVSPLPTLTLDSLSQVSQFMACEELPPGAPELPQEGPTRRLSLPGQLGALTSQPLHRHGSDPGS
row,SMILES,"hERG current change (%, negative = inhibition) at 1uM [%]"
1,CCOC(=O)C1CCCN(Cc2ccc(OCC)cc2)C1 (centres unmarked),-13.8
2,CCOC(=O)c1c(NC(=O)CN2C(=O)NC3(CCCCC3C)C2=O)sc(C(=O)N(C)C)c1C (centres unmarked),-4.29
3,O=C(NC(=O)c1cccc(F)c1)Nc1nc(-c2ccc(F)cc2)cc(C(F)(F)F)n1,7.95
4,Cc1cc(Cl)nc(Cl)c1C(=O)NCc1ccc(Cl)cc1,5.58
5,CCOC(=O)c1nn(C)c(C)c1Cl,12
6,Cc1cccc(N(C(=O)Cn2nnc(-c3ccc(C)o3)n2)C(C(=O)NC2CCCC2)c2ccncc2)c1 (centres unmarked),14.2
7,CC(C)(C)c1nnc(SCC(=O)Nc2ccc(N3CCCCC3)cc2)n1N,9.88
8,Cc1ccc(CN(C)C(=O)c2ccccc2Sc2ccccc2C#N)cc1,18.7
9,CCc1cc2ccc(C)cc2nc1SCC(=O)NNC(=O)c1ccco1,5.1
10,O=C(Nc1ccc(N2CCOCC2)cc1)c1ccc(S(=O)(=O)N2CCCCC2)cc1,4.75
11,COc1cc(=O)n(C)c2cc(N(C)C)ccc12,25.3
12,C=CCOC(=O)C1=C(C)NC(=O)NC1c1ccc(O)cc1 (centres unmarked),10.9
13,CC1CCCCC1NC(=O)C1CCN(S(=O)(=O)N2CCOCC2)CC1 (centres unmarked),-2.88
14,CCO[C@@H]1OC(C(=O)N2CCN(C)CC2)=C[C@H](C2CCCCC2)[C@H]1CCCO,7.63
15,CCc1cccc(OCCCCN(CC)CC)c1,-8.42
16,COc1c(C)cc(Br)cc1C(=O)Nc1ccccc1C,10.6
17,COc1ccc(COC(=O)C2CCN(S(=O)(=O)c3cccs3)CC2)cc1,5.9
18,COc1ccc(-n2nc(C(=O)NCC(=O)N3CCN(c4ccccn4)CC3)c3ccccc3c2=O)cc1,10.2
19,CCOc1ccccc1C(=O)NC(C(=O)NCc1ccc(F)cc1)C(C)C (centres unmarked),-0.114
20,COc1cccc(NC(=O)c2cc3cccc(OC)c3o/c2=N\O)c1,6.96
21,O=C(NNC1CC(=O)N(c2ccccc2)C1=O)c1ccc(COc2ccccc2Cl)o1 (centres unmarked),5.28
22,Cc1cc2nnc(SC(C)C)n2c2ccccc12,4.74
23,Br.Cc1ccc(C(=O)CSc2nc3c([nH]2)c(=O)n(C)c(=O)n3C)cc1,0.982

row,SMILES,"hERG current change (%, negative = inhibition) at 1uM [%]"
1,COc1cccc(NC(=O)c2ccccc2SC)c1,9.46
2,O=C(CC(Nc1cccc(Cl)c1Cl)C(=O)O)c1ccccc1 (centres unmarked),7.09
3,COC(=O)c1c(N)sc(Cc2ccccc2)c1C,15.8
4,CCCNc1c(NC(=O)c2ccc3c(c2)OCO3)c(=O)oc2ccccc12,15.1
5,O=C(CC(CC(=O)c1ccccc1)C(=O)O)c1ccccc1,12.5
6,Cc1noc(NS(=O)(=O)c2ccc(NC(=O)/C=C/c3ccc(C(C)C)cc3)cc2)c1C,16.9
7,O=C(Cn1c2[n+](c3ccccc31)CC(O)CS2)c1ccccc1.[Br-] (centres unmarked),4.68
8,Cc1cc(NC(=O)CCOc2ccccc2)no1,-0.681
9,CCCC(CCC(=O)OC)(C(=O)OCC)c1csc(N)n1 (centres unmarked),-4.83
10,CCOC(=O)N1CCC(NC(=O)CN2C(=O)CSc3nc(C)cc(C)c32)CC1,16.6
11,CC(=O)c1c(C)[nH]c(C(=O)COC(=O)CCCOc2ccccc2)c1C,3.62
12,COc1ccc([N+](=O)[O-])cc1NC(=O)C(C)OC(=O)CN1C(=O)C2CC=CCC2C1=O (centres unmarked),4.05
13,O=C(NC(=S)Nc1cccc2cnccc12)c1ccccc1,12.1
14,Cc1cc([N+](=O)[O-])ccc1NC(=O)CSc1nnc(C)n1C,14.4
15,CCc1ccc(NC(=O)C2CCCN(S(=O)(=O)c3ccc4[nH]c(=O)ccc4c3)C2)cc1 (centres unmarked),22.3
16,COC(=O)CCCC1=CC2=CC(=O)C(C)(OC(=O)c3ccco3)C(=O)C2=CO1 (centres unmarked),-0.223
17,CC(C)(C)c1ccc(C2(C)NC(=O)N(CC(=O)Nc3ccc4c(c3)OCO4)C2=O)cc1 (centres unmarked),1.3
18,CC1=CC(C)(C)NC(=S)N1c1ccccc1C,9.99
19,Cc1nnc(NC(=O)CN2C(=O)c3ccccc3S2(=O)=O)s1,7.28
20,c1ccc(Oc2ccc(-c3ccnc4ncnn34)cc2)cc1,17.1
21,Cc1ccnc(NC(=O)c2sc3cc(Cl)ccc3c2Cl)c1,16.4
22,CCCn1c(=N)c(S(=O)(=O)c2ccc(F)cc2)cc2c(=O)n3cccc(C)c3nc21,7.37
23,COc1cccc(NC(=O)Nc2cccs2)c1,-1.73

row,SMILES,"hERG current change (%, negative = inhibition) at 1uM [%]"
1,O=C(Nc1cccc(F)c1)c1ccc(Br)o1,-2.95
2,CC(=O)Nc1ccccc1NC(=O)C/C(C)=N/NC(=O)c1ccc([N+](=O)[O-])c(Cl)c1,28.1
3,COc1ccc(C(=O)N/C(=C\c2ccco2)C(=O)OCc2ccco2)cc1,-4.42
4,Cc1ccccc1C1=N/C(=C/c2cccs2)C(=O)O1,16.6
5,CCN(CC)C(=O)c1cc2c(=O)c3cc(F)ccc3oc2nc1C,9.93
6,Nc1nonc1C(=O)NCCN=Cc1cc(Cc2ccccc2)cc(Br)c1O,-7.82
7,Cc1ccc2c(c1)c1c(n2CC2COC(C)(C)O2)C(=O)CCC1 (centres unmarked),-2.2
8,O=C(/C=C/c1c[nH]c2ccccc12)c1cccc2ccccc12,17.7
9,Cc1cccc(OCC(O)CN2C(C)(C)CC(O)CC2(C)C)c1 (centres unmarked),-6.61
10,COc1cccc(/C=C/C(=C2/C(=O)N(c3ccccc3)N=C2C)c2ccc(C)cc2)c1OC,9.15
11,Cc1ccc(/C=N/Nc2nc(C(C)(C)C)cs2)o1.Cl,7.31
12,Cn1c(/N=C/c2c[nH]c3ccccc23)nc2ccccc21,12.2
13,O=C(CCC(=O)Nc1ccccc1)NNS(=O)(=O)c1ccc(Cl)cc1,11.5
14,COc1ccccc1Cc1noc(-c2cc(Cl)ccc2OC)n1,10.9
15,CCN1CCN(C(C(=O)NC2CCCC2)c2cc3c(cc2[N+](=O)[O-])OCO3)CC1 (centres unmarked),7.69
16,O=C1NCCCCC1NS(=O)(=O)c1cccc2ccccc12 (centres unmarked),12
17,O=C1CSCC(=O)N1Cc1ccc(Cl)c(Cl)c1,14.3
18,CC(C)(C)c1ccc(-n2ncc3c2CCCC3NC(=O)CN2CCCC2=O)cc1 (centres unmarked),4.64
19,CCC(=O)N(CCc1ccccc1C)Cc1cc2ccc(C)cc2[nH]c1=O,10.5
20,N#Cc1ccc(CSc2nc(N)cc(=O)[nH]2)cc1,6.42
21,CC1CCCC(N2CCN(C(=O)c3ccc(F)cc3)CC2)C1 (centres unmarked),-25
22,CCN(CC)C1CCN(c2nc3nonc3nc2NCCOC)C1 (centres unmarked),4.76
23,O=C(/C=C/c1cccs1)Nc1ccc(Br)cn1,11.3

row,SMILES,"hERG current change (%, negative = inhibition) at 1uM [%]"
1,COc1cc(NC(C)=O)c2ncccc2c1[N+](=O)[O-],6.48
2,CCOC(=O)c1cc2sccc2n1CC(=O)Nc1ccc(OC)cc1OC,-0.342
3,Cc1cc(-c2ccc(C(C)C)c(S(=O)(=O)N3CCOc4ccccc43)c2)on1,18.2
4,Cc1ccc(NC(=O)COc2nc(C)cs2)cc1,9.3
5,Cc1ccc(S(=O)(=O)CCC(=O)OCC(=O)Nc2cc(F)ccc2C)cc1,15.5
6,Cc1oc2ccc(O)c(CN3CCOCC3)c2c1C(C)O (centres unmarked),0.188
7,O=C(Nc1ccc(Cl)cc1)N1CCSC1=NCc1ccccc1,13.6
8,O=C(COc1ccccc1-c1ccccc1)NCCN1C(=O)S/C(=C\c2cccnc2)C1=O,5.69
9,Cc1cc(C)c2c(N)c(C(=O)c3ccccc3)oc2n1,1.72
10,Cn1c(N)c(C(=O)COC(=O)c2cc(C(F)(F)F)nc3ccccc23)c(=O)n(C)c1=O,3.95
11,Cc1ccc(NC(=O)N(CCCN2CCOCC2)Cc2cccnc2)cc1C,5.2
12,C/C(=N\NC(=O)c1ccccc1O)c1cccs1,8.69
13,CSCCC(NC(=O)c1ccco1)C(=O)Nc1ccncc1 (centres unmarked),12
14,O=C(CSc1ncnc2c1cnn2CCc1ccccc1)Nc1cccc(C(F)(F)F)c1,6.5
15,O=C(CCN1C(=O)/C(=C/c2cccs2)SC1=S)NNC(=O)c1cccc(O)c1,7.92
16,Cc1ccc(S(=O)(=O)c2nc(-c3cccs3)oc2NCc2cccnc2)cc1,-0.465
17,Cc1ccc(CNC(=O)CS(=O)(=O)Cc2nc(-c3ccc(C)cc3)oc2C)cc1,12
18,CCOc1ccc(NS(=O)(=O)c2ccc(C(=O)NCC(c3ccc(OC)cc3)N3CCOCC3)cc2)cc1 (centres unmarked),15
19,O=C(O)CN1C(=O)c2ccc(Oc3ccc([N+](=O)[O-])cc3)cc2C1=O,20.4
20,COc1ccc(NC(=O)Cn2nnc(C(=O)Nc3ccccc3C)c2N)cc1,15.5
